Laboratory results from PubChem BioAssay AID1347073 (National Center for Advancing Translational Sciences (NCATS), 2019).
The whole screen tested about 45,000 compounds, of which about 200 (0.44%) were called active. Inconclusive results (about 7%) are left out. The call rests on the fitted dose curve; in most records, active means well fitted activation curve with a large enough effect; inconclusive means small, poorly fitted or top-dose-only effect; inactive means no such curve, though single readings can be large or run the other way. The list shows a part of the results.

Assay: qHTS of TDP-43 Inhibitors: NCGC Sytravon Library Screen; further: nearly all actives have a fitted effect of over 55% in size; on growth rescue (activation): 0% is about no effect
Details: yeast TDP-43 toxicity rescue, BacTiter-Glo growth, 24 h; series mostly up to 46.1 µM; growth rescue (activation): at the top concentration
Source text: The goal of this project is to identify new chemical probes capable of reversing the toxicity associated with TDP-43 which is associated with frontotemporal lobar degeneration and amyotrophic lateral sclerosis. These compounds will provide a complementary approach to deciphering the tangled mechanisms of toxicity and protection that we have uncovered through genome-wide genetic screens and are beginning to uncover in a large-scale proteomics analysis with mass spectroscopy. To this end, a miniaturized assay was developed to be screened against the Molecular Libraries Small Molecule Repository (MLSMR) to discover TDP-43 inhibitors. Please note that in the set-up this yeast-based assay compounds that inhibit as TDP-43, have a read-out as activators. NIH Chemical Genomics Center [NCGC] NIH Molecular Libraries Probe Centers Network [MLPCN] Assay Submitter (PI): Susan Lindquist, Whitehead Institute/MIT MLPCN Grant: R21 NS060957
Dispense 2.5 microL yeast galactose medium per 1536-well plate, pin compound, dispense 2.5 microL TDP-43 expressing yeast in galactose medium at OD600=0.02 (pregrown in raffinose medium to mid-log phase) per well, incubate for 24 hr at 30 deg C, and cell growth will be measured using 5 microL of Bactiter/Glo reagent to entire plate and read using Luminescence Protocol in ViewLux.
Potency means the concentration at half of the fitted maximal effect.

SMILES | growth rescue (activation) | Potency
Cc1c([N+](=O)[O-])c([N+](=O)[O-])nn1CC(=O)NCCc1ccccc1 | inactive: -0.068% | 
COc1cccc(S(=O)(=O)NCc2ccc(C(=O)Nc3ccc(Cl)cc3)cc2)c1 | inactive: -0.821% | 
O=c1[nH]c(C2CCN(S(=O)(=O)c3cccc([N+](=O)[O-])c3)CC2)nc2c1nnn2Cc1ccccc1 | inactive: 8.91% | 
CCOc1ccc(CNC(=O)c2cnc(SC)nc2CC)cc1 | inactive: 20.4% | 
O=C(Cn1nc(C(F)F)cc1C1CC1)N1CCCC1 | inactive: -14% | 
CN(CC(=O)NCCc1ccc(F)cc1)Cc1ccc(Br)cc1 | inactive: 9.49% | 
CCCCC(=O)N(C)c1c(C)nc2ccc(C(=O)NCc3ccccc3OC)cn12 | inactive: 13.5% | 
Cc1cc(F)ccc1-c1cc(C(=O)NCc2ccccc2)[nH]n1 | inactive: 12.7% | 
CSc1ccc(CN2CCC(C)(Oc3cccc(F)c3)C2)cc1 (stereo unspecified) | inactive: -4.99% | 
COc1ccc(C(NC(C)=O)c2cc(Cl)c3cccnc3c2O)cc1OC (stereo unspecified) | inactive: 11% | 
Cn1c(Cn2nnc3ccccc32)nnc1SCC(=O)Nc1nccs1 | inactive: 12% | 
Cc1ccnn1Cc1cc(C(=O)O)c2ccccc2n1 | inactive: 9.79% | 
Cc1ccccc1NS(=O)(=O)c1ccc(NC(=O)N2CCCCC2)cc1 | inactive: -4.4% | 
COc1cccc(C(=O)NCC(=O)OC(C)C(=O)NC23CC4CC(CC(C4)C2)C3)c1 (stereo unspecified) | inactive: 6.73% | 
O=C(CSc1nnnn1Cc1ccccc1)NC1CCCCC1 | inactive: 2.16% | 
CCOC(=O)c1c(CC(C)C)csc1NC=O |  | active: 15.8 µM
CCOc1cc(C)c(S(=O)(=O)NC2CC(C)(C)NC(C)(C)C2)cc1C | inactive: -8.43% | 
O=C(O)CC(C(=O)N(c1ccccc1)c1ccccc1)N1CCOCC1 (stereo unspecified) | inactive: 17.7% | 
O=C(O)Cn1c2c(c3ccccc31)CSc1ccc(Cl)cc1-2 | inactive: 8.81% | 
Cc1ccc(NC(=S)/N=C(\N)Nc2nc(C)c3cc(C)c(C)cc3n2)cc1C | inactive: 9.42% | 
Cc1sc2ncn(-n3c(C)ccc3C)c(=O)c2c1C | inactive: 38% | 
Cc1ccc(-c2cc(C(=O)Nc3ccc(S(=O)(=O)Nc4onc(C)c4C)cc3)[nH]n2)c(O)c1 | inactive: -13.5% | 

SMILES | growth rescue (activation) | Potency
NC(=O)C1(N2CCCCC2)CCN(C(=O)Nc2ccc(Cl)c(Cl)c2)CC1 | inactive: -7.19% | 
Cc1noc(C)c1S(=O)(=O)N1CCC(C(=O)N2CCN(Cc3ccc4c(c3)OCO4)CC2)CC1 | inactive: 2.18% | 
CC1Oc2ccccc2N(CC(=O)N2CCCCCC2)C1=O (stereo unspecified) | inactive: -2% | 
Cc1cc(NC(=O)/C(C#N)=C/c2ccc(-c3cccc(C(F)(F)F)c3)o2)n(-c2ccccc2)n1 | inactive: 15.9% | 
Cc1cc(NC(=O)Cn2nnc(-c3ccccc3N)n2)no1 | inactive: -17.5% | 
COC(=O)Cc1ccc(OC2(C)CCN(Cc3csc4ccccc34)C2)cc1 (stereo unspecified) | inactive: -4.07% | 
CC(=O)c1cccc(-c2ccnc3c2CC(C(=O)NCc2ccco2)O3)c1 (stereo unspecified) | inactive: 7.57% | 
Cc1cccc(NC(=O)COC(=O)c2nn(C)c(=O)c3ccccc23)c1C | inactive: 15.8% | 
O=C(NNC(=O)c1cccs1)c1ccc(Br)cc1 | inactive: 14.5% | 
Cc1ccc(NC(=O)C(C)N2C(=O)c3ccccc3C2=O)nc1 (stereo unspecified) | inactive: 14.5% | 
Cc1ccc(C(C(=O)NC2CCCC2)N(Cc2ccccc2)C(=O)c2csnn2)o1 (stereo unspecified) | inactive: -15.3% | 
CSCCC(NS(=O)(=O)/C=C/c1ccccc1)C(=O)O (stereo unspecified) | inactive: -9.52% | 
O=S(=O)(Nc1nc2ccccc2nc1-[n+]1cccc(N=C([O-])c2ccc(Cl)cc2)c1)c1ccccc1 | inactive: 1.35% | 
Cc1ccc(NC(=S)NCC(C)CSc2ccc(Cl)cc2)cc1 (stereo unspecified) | inactive: 13% | 
O=S(=O)(Nc1c(F)cccc1F)c1ccc2c(c1)OCCO2 | inactive: 4.6% | 
COc1ccc(Cl)cc1C(=O)NNC(=S)NC(=O)c1ccc(F)c(F)c1 | inactive: -18.1% | 
NS(=O)(=O)c1ccc(CCNC(=O)c2ccc(C(=O)c3ccccc3)cc2)cc1 | inactive: -7.61% | 
COc1c(C)cc(Br)cc1C(=O)Nc1ccc(C)cc1[N+](=O)[O-] | inactive: -0.87% | 
COc1ccc(N(C(=O)COc2cccc(C)c2)S(=O)(=O)c2ccc(C)cc2)cc1 | inactive: 3.87% | 
N#C/C(=C\c1cn(CCOc2ccccc2F)c2ccccc12)C(=O)NCc1cccs1 | inactive: 2.4% | 
CSc1nnc(NC(=O)c2ccc(C)c(S(=O)(=O)N3CCOCC3)c2)s1 | inactive: 14.7% | 
CC1(C)Cc2nc3oc4c(SCC(N)=O)ncnc4c3cc2CO1 | inactive: 6.99% | 

SMILES | growth rescue (activation) | Potency
CCN(CC(=O)NCCN1CCOCC1)S(=O)(=O)c1ccc(F)cc1 | inactive: -8.66% | 
COc1cc(CN2CCNC(=O)C2CC(=O)NCCC2=CCCCC2)cc(OC)c1 (stereo unspecified) | inactive: -13.7% | 
Cc1noc(C)c1C(=O)Nc1ccccc1C(=O)NCCc1ccccc1 | inactive: 26.9% | 
COc1ccc(S(=O)(=O)N(C(=O)c2ccco2)c2cc3sc(=O)oc3c3ccccc23)cc1 | inactive: -2.62% | 
COc1ccc(CC(NC(C)=O)C(=O)NC2CCN(C(=O)c3cccc(Cl)c3)CC2)cc1OC (stereo unspecified) | inactive: 10.7% | 
Cc1c2cnn(CC(=O)O)c(=O)c2c(C)n1Cc1cccc(Cl)c1 | inactive: -3.12% | 
CC(=O)Nc1cc(-c2ccc(N3CCN(C)CC3)cc2)cn2c(-c3cccc(C(C)=O)c3)cnc12 | inactive: -4.5% | 
Cc1ccc(Cl)cc1N1CCN(C(=S)NCCc2ccccc2)CC1 | inactive: 16.3% | 
CCCN(CCC)CCCn1c(=O)[nH]c2ccccc21 | inactive: 5.89% | 
N#CC1=C(N)Nc2nc3ccccc3n2C1c1ccc(F)cc1 (stereo unspecified) | inactive: -19.2% | 
CCN(CC)S(=O)(=O)c1cc(C(=O)OCC(=O)Nc2c(F)cccc2F)ccc1F | inactive: 0.213% | 
S=c1[nH]nc(-c2ccncc2)n1/N=C/c1ccccc1 | inactive: 18% | 
O=C(Nc1ccc(F)c([N+](=O)[O-])c1)C(=O)c1c(O)[nH]c2ccccc12 | inactive: -24.5% | 
O=C(NCc1cc(Cl)cc(Cl)c1)c1ccc2nc([C@H]3C[C@H](O)[C@@H](CO)O3)[nH]c2c1 | inactive: -2.53% | 
C=C(C)CSc1[nH]c(=O)cc(C)c1C#N | inactive: 1.69% | 
COc1ccc(C(O)c2ncc(-c3ccccc3C)[nH]2)cc1 (stereo unspecified) | inactive: 5.61% | 
Cc1nc2ccc(C(=O)NCCCn3ccnc3)cn2c1N(C)CC1CCCCC1 | inactive: -2.89% | 
COc1ccc(C(=O)NC(CCSC)C(=O)N2CCCCCC2)cc1 (stereo unspecified) | inactive: 3.68% | 
CC(C)(C)c1ccc(C(O)c2ncc(-c3ccccc3F)[nH]2)cc1 (stereo unspecified) | inactive: 4.16% | 
CCN(CC)CCOC(=O)c1ccc(NC(=O)CNC(=O)c2ccccc2)cc1 | inactive: -1.84% | 
CCCn1nc(C(=O)NNC(=O)c2ccc(OC(F)F)cc2)c2ccccc2c1=O | inactive: 2.14% | 
COc1cc(/C=N/Nc2nc3ccccc3s2)ccc1O | inactive: 24.9% | 

SMILES | growth rescue (activation) | Potency
CCc1nnc(NC(=O)[C@@H](NC(=O)c2cccc(C)c2)C(C)C)s1 | inactive: 4.56% | 
O=C(N/N=C/c1ccc2c(c1)OCCO2)c1ccncc1 | inactive: 9.26% | 
O=C(CCNS(=O)(=O)c1ccc(Br)s1)NCc1ccc2c(c1)OCO2 | inactive: 14.2% | 
Cc1c(Cl)cccc1NC(=O)Cc1ccc([N+](=O)[O-])cc1 | inactive: 8.3% | 
COc1ccccc1NS(=O)(=O)c1ccc(C)c(NC(=O)NCCCl)c1 | inactive: -0.337% | 
Cc1cc(C)n2c(SCCO)nnc2n1 | inactive: 6.54% | 
OCCC1CN(CCCc2ccccc2)CCN1Cc1ccccc1 (stereo unspecified) | inactive: -2.48% | 
O=C(NCC1CCCO1)C(c1cccs1)N(Cc1cccs1)C(=O)c1ccc(-c2ccccc2)[nH]1 (stereo unspecified) | inactive: 17.4% | 
Cc1ccc2nc3c(cc(C(=O)NCC4CCCO4)c(=N)n3CC3CCCO3)c(=O)n2c1 (stereo unspecified) | inactive: 6.25% | 
COc1cc(OC)cc(C(=O)OCC(=O)Nc2cccc(C(C)=O)c2)c1 | inactive: 4.39% | 
O=C(O)CCC(=O)NN1C(=O)c2ccccc2NC1c1ccc(F)cc1 (stereo unspecified) | inactive: 27.9% | 
CC(=O)NCCNC(=O)C1Cc2c(-c3ccc(Cl)cc3)ccnc2O1 (stereo unspecified) | inactive: 9.24% | 
Cc1ccc(Nc2nc(N)c([N+](=O)[O-])c(N3CCOCC3)n2)cc1 | inactive: 13.8% | 
CCN(CC)S(=O)(=O)c1ccc(NCC2COc3ccccc3O2)c([N+](=O)[O-])c1 (stereo unspecified) | inactive: 17.2% | 
CC(C)c1ccc(NCCC(=O)c2ccc(Br)cc2)cc1 | inactive: 16.2% | 
O=C(CN1C(=O)NC2(CCCCCC2)C1=O)Nc1ccc2c(c1)CCC2 | inactive: 6.91% | 
CC(=O)Nc1ccc(C(=O)COC(=O)Cc2ccsc2)c(F)c1 | inactive: 8.65% | 
CC(NC(=O)N1CCN(c2ccccc2F)CC1)c1ccc(F)c(F)c1 (stereo unspecified) | inactive: 6.06% | 
O=C(O)c1cnc(-c2ccccc2)nc1-c1ccccc1 | inactive: -1.37% | 
O=C(Cn1nc(Cl)nc1Cl)c1ccccc1 | inactive: 7.88% | 
O=C(NC1CC1)c1cc(=S)[nH]c2ccccc12 | inactive: 21.7% | 
CC/C(=N\NC(=O)CNC(=O)/C=C/c1ccc(OC)cc1)c1ccccc1 | inactive: -0.776% | 

SMILES | growth rescue (activation) | Potency
O=C(Nc1ccc2c(c1)OCO2)N1CCN(c2ccc(F)cc2)CC1 | inactive: 18.9% | 
CCN(CCNCC(O)COc1ccccc1C(C)C)c1cccc(C)c1 (stereo unspecified) | inactive: 4.27% | 
O=C1CCC(CCC(=O)N2CCCC(C(=O)c3cccc(C(F)(F)F)c3)C2)=NN1 (stereo unspecified) | inactive: 13.2% | 
O=C(Cc1coc2cc(O)ccc12)NNC(=O)c1cccs1 | inactive: 11.5% | 
COCCNC(=O)CN(c1cc(Cl)ccc1OC)S(=O)(=O)c1ccc(C)c([N+](=O)[O-])c1 | inactive: 8.16% | 
Oc1cccc(/C=N/N2CCN(C3c4ccccc4-c4ccccc43)CC2)c1 | inactive: 10.5% | 
COc1ccc(NC(=O)CNc2cc(S(=O)(=O)N3CCOCC3)ccc2NCC2CCCO2)cc1 (stereo unspecified) | inactive: 0.922% | 
CC(=O)Nc1ccc(NC(=O)CSc2ccc([N+](=O)[O-])cn2)cc1 | inactive: -1.76% | 
Cc1ccsc1CN(C)CC(=O)Nc1ccccc1C(=O)NC1CC1 | inactive: 7% | 
CCCNNC(=O)C(O)(c1ccccc1)c1ccccc1 | inactive: -7.04% | 
Cc1cccc(NC(=O)C2CCCN(c3nnc(-n4c(C)ccc4C)s3)C2)c1C (stereo unspecified) | inactive: 11% | 
CCOC(=O)c1nc(Nc2ccccc2C)c2ccccc2n1 | inactive: 11.4% | 
N#Cc1c(-c2ccccc2)nc(SCC(=O)N(c2ccccc2)c2ccccc2)[nH]c1=O | inactive: 22.2% | 
COc1ccc(CCn2c(-c3ccc(OC)cc3)nc3c(c(=O)c4ccccc4n3C)c2=O)cc1 | inactive: -1.19% | 
C/C(=N\N1CCN(Cc2ccc(Cl)cc2)CC1)c1ccc(F)cc1 | inactive: 8.88% | 
CCc1ccc(NC(=O)COc2cccc(-n3cnnn3)c2)cc1 | inactive: 19.6% | 
C=CCOc1c(Br)cc(CNc2ccc(NC(=O)C(C)C)cc2)cc1OCC | inactive: 27.2% | 
CN(C)c1ccc(CNc2nc(-c3ccccc3)nn2S(C)(=O)=O)cc1 | inactive: 9.98% | 
